According to publication PMC9911399, “Two distinct binding modes provide the RNA-binding protein RbFox with extraordinary sequence specificity”:
Residue numbers refer to the chain shown, from its start. The list shows a part of the results.

T1: RBFOX1 RRM RbFoxmut (Fox-RRM*) (Homo sapiens, UniProt Q9NWB1 109-208, R118D;E147R;N151S;E152T)
T1 sequence: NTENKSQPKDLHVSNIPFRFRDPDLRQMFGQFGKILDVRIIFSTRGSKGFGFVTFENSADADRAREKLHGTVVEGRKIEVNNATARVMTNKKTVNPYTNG

B1: CAGCAUA (DNA:RNA)
RNA: GGGAGACCGGAAUUCAGAUUGUCCCAGCAUAUUAAAUCCCGUCGUAGCCACCA
DNA 1: CAATCTGAATTCCGGTCTCCC
DNA 2: TGGTGGCTACGACGGGATT
B2: CUCAGAA (DNA:RNA)
RNA: B1 RNA with A26U, G27C, C28A, A29G, U30A
DNA 1: CAATCTGAATTCCGGTCTCCC
DNA 2: TGGTGGCTACGACGGGATT
B3: CGCUCGA (DNA:RNA)
RNA: B1 RNA with A26G, G27C, C28U, A29C, U30G
DNA 1: CAATCTGAATTCCGGTCTCCC
DNA 2: TGGTGGCTACGACGGGATT
B4: UCAAUUC (DNA:RNA)
RNA: B1 RNA with C25U, A26C, G27A, C28A, A29U, A31C
DNA 1: CAATCTGAATTCCGGTCTCCC
DNA 2: TGGTGGCTACGACGGGATT
B5: UCCUUCA (DNA:RNA)
RNA: B1 RNA with C25U, A26C, G27C, C28U, A29U, U30C
DNA 1: CAATCTGAATTCCGGTCTCCC
DNA 2: TGGTGGCTACGACGGGATT
B6: CUAAUAG (DNA:RNA)
RNA: B1 RNA with A26U, G27A, C28A, A29U, U30A, A31G
DNA 1: CAATCTGAATTCCGGTCTCCC
DNA 2: TGGTGGCTACGACGGGATT
B7: GCGAUUU (DNA:RNA)
RNA: B1 RNA with C25G, A26C, C28A, A29U, A31U
DNA 1: CAATCTGAATTCCGGTCTCCC
DNA 2: TGGTGGCTACGACGGGATT
B8: ACUUGAA (DNA:RNA)
RNA: B1 RNA with C25A, A26C, G27U, C28U, A29G, U30A
DNA 1: CAATCTGAATTCCGGTCTCCC
DNA 2: TGGTGGCTACGACGGGATT
B9: AACGUAC (DNA:RNA)
RNA: B1 RNA with C25A, G27C, C28G, A29U, U30A, A31C
DNA 1: CAATCTGAATTCCGGTCTCCC
DNA 2: TGGTGGCTACGACGGGATT
B10: GGUUUAG (DNA:RNA)
RNA: GGGAGACCGGAAUUCAGAUUGUCCGGUUUAGUUAAAUCCCGUCGUAGCCACCA
DNA 1: CAATCTGAATTCCGGTCTCCC
DNA 2: TGGTGGCTACGACGGGATT
B11: CAGUUUU (DNA:RNA)
RNA: B1 RNA with C28U, A29U, A31U
DNA 1: CAATCTGAATTCCGGTCTCCC
DNA 2: TGGTGGCTACGACGGGATT
B12: GCAGAAG (DNA:RNA)
RNA: B10 RNA with G26C, U27A, U28G, U29A
DNA 1: CAATCTGAATTCCGGTCTCCC
DNA 2: TGGTGGCTACGACGGGATT
B13: ACCAACG (DNA:RNA)
RNA: B1 RNA with C25A, A26C, G27C, C28A, U30C, A31G
DNA 1: CAATCTGAATTCCGGTCTCCC
DNA 2: TGGTGGCTACGACGGGATT
B14: AAUAAUC (DNA:RNA)
RNA: B1 RNA with C25A, G27U, C28A, A31C
DNA 1: CAATCTGAATTCCGGTCTCCC
DNA 2: TGGTGGCTACGACGGGATT
B15: UCAGUAG (DNA:RNA)
RNA: B10 RNA with G25U, G26C, U27A, U28G
DNA 1: CAATCTGAATTCCGGTCTCCC
DNA 2: TGGTGGCTACGACGGGATT
B16: GACACCG (DNA:RNA)
RNA: B10 RNA with G26A, U27C, U28A, U29C, A30C
DNA 1: CAATCTGAATTCCGGTCTCCC
DNA 2: TGGTGGCTACGACGGGATT
B17: AUUGACG (DNA:RNA)
RNA: B10 RNA with G25A, G26U, U28G, U29A, A30C
DNA 1: CAATCTGAATTCCGGTCTCCC
DNA 2: TGGTGGCTACGACGGGATT
B18: AUAUAGU (DNA:RNA)
RNA: B1 RNA with C25A, A26U, G27A, C28U, U30G, A31U
DNA 1: CAATCTGAATTCCGGTCTCCC
DNA 2: TGGTGGCTACGACGGGATT
B19: GGGCUAC (DNA:RNA)
RNA: B10 RNA with U27G, U28C, G31C
DNA 1: CAATCTGAATTCCGGTCTCCC
DNA 2: TGGTGGCTACGACGGGATT
B20: AGACAGC (DNA:RNA)
RNA: B1 RNA with C25A, A26G, G27A, U30G, A31C
DNA 1: CAATCTGAATTCCGGTCTCCC
DNA 2: TGGTGGCTACGACGGGATT
B21: CAACCGA (DNA:RNA)
RNA: B1 RNA with G27A, A29C, U30G
DNA 1: CAATCTGAATTCCGGTCTCCC
DNA 2: TGGTGGCTACGACGGGATT
B22: ACCUAAG (DNA:RNA)
RNA: B10 RNA with G25A, G26C, U27C, U29A
DNA 1: CAATCTGAATTCCGGTCTCCC
DNA 2: TGGTGGCTACGACGGGATT
B23: GUCUUCC (DNA:RNA)
RNA: B10 RNA with G26U, U27C, A30C, G31C
DNA 1: CAATCTGAATTCCGGTCTCCC
DNA 2: TGGTGGCTACGACGGGATT
B24: UAUAUAA (DNA:RNA)
RNA: B10 RNA with G25U, G26A, U28A, G31A
DNA 1: CAATCTGAATTCCGGTCTCCC
DNA 2: TGGTGGCTACGACGGGATT
B25: AUAGGUC (DNA:RNA)
RNA: B1 RNA with C25A, A26U, G27A, C28G, A29G, A31C
DNA 1: CAATCTGAATTCCGGTCTCCC
DNA 2: TGGTGGCTACGACGGGATT
B26: AGUUCAU (DNA:RNA)
RNA: B10 RNA with G25A, U29C, G31U
DNA 1: CAATCTGAATTCCGGTCTCCC
DNA 2: TGGTGGCTACGACGGGATT
B27: CAAAAAG (DNA:RNA)
RNA: B1 RNA with G27A, C28A, U30A, A31G
DNA 1: CAATCTGAATTCCGGTCTCCC
DNA 2: TGGTGGCTACGACGGGATT
B28: CUUCUCU (DNA:RNA)
RNA: B1 RNA with A26U, G27U, A29U, U30C, A31U
DNA 1: CAATCTGAATTCCGGTCTCCC
DNA 2: TGGTGGCTACGACGGGATT
B29: UGUUGAU (DNA:RNA)
RNA: B10 RNA with G25U, U29G, G31U
DNA 1: CAATCTGAATTCCGGTCTCCC
DNA 2: TGGTGGCTACGACGGGATT
B30: AAGGGCU (DNA:RNA)
RNA: B1 RNA with C25A, C28G, A29G, U30C, A31U
DNA 1: CAATCTGAATTCCGGTCTCCC
DNA 2: TGGTGGCTACGACGGGATT
B31: CGUCCAA (DNA:RNA)
RNA: B1 RNA with A26G, G27U, A29C, U30A
DNA 1: CAATCTGAATTCCGGTCTCCC
DNA 2: TGGTGGCTACGACGGGATT

biological target: T1, RBFOX1 RRM RbFoxmut (Fox-RRM*); experiment: EMSA; HiTS-Eq, 1 nM pool, 10 min; buffer printed only for the single-RNA assays: 10 mM Tris pH 7.5, 150 mM NaCl, 3.4 mM EDTA, 0.001% NP-40, 30 C; settings: tags: His6 N-terminal (pET28a); label: 5' 32P
In short: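 Purified RbFox RRM, wild type or mutant, was incubated for 10 min in 50 µL with 1 nM of a 5′-radiolabelled RNA pool carrying 7 randomized nucleotides, whose flanks were annealed to DNA oligonucleotides, over a series of increasing protein concentrations. Unbound RNA was resolved on 8% native PAGE, cut out, reverse-transcribed, barcoded by PCR and sequenced on an Illumina HiSeq 2500. Relative association constants were derived from changes in read counts for each RNA species versus the control reaction and normalised to the cognate motif.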

| Binder | binding signal |
| --- | --- |
| B1 | 0.137 KA relative to UGCAUGU |
| B2 | 0.123 KA relative to UGCAUGU |
| B3 | 0.131 KA relative to UGCAUGU |
| B4 | 0.0738 KA relative to UGCAUGU |
| B5 | 0.0982 KA relative to UGCAUGU |
| B6 | 0.0844 KA relative to UGCAUGU |
| B7 | 0.0734 KA relative to UGCAUGU |
| B8 | 0.0965 KA relative to UGCAUGU |
| B9 | 0.115 KA relative to UGCAUGU |
| B10 | 0.0977 KA relative to UGCAUGU |
| B11 | 0.105 KA relative to UGCAUGU |
| B12 | 0.0857 KA relative to UGCAUGU |
| B13 | 0.118 KA relative to UGCAUGU |
| B14 | 0.0642 KA relative to UGCAUGU |
| B15 | 0.126 KA relative to UGCAUGU |
| B16 | 0.0808 KA relative to UGCAUGU |

| Binder | binding signal |
| --- | --- |
| B17 | 0.0959 KA relative to UGCAUGU |
| B18 | 0.108 KA relative to UGCAUGU |
| B19 | 0.0681 KA relative to UGCAUGU |
| B20 | 0.0612 KA relative to UGCAUGU |
| B21 | 0.0449 KA relative to UGCAUGU |
| B22 | 0.11 KA relative to UGCAUGU |
| B23 | 0.125 KA relative to UGCAUGU |
| B24 | 0.0485 KA relative to UGCAUGU |
| B25 | 0.106 KA relative to UGCAUGU |
| B26 | 0.109 KA relative to UGCAUGU |
| B27 | 0.068 KA relative to UGCAUGU |
| B28 | 0.0664 KA relative to UGCAUGU |
| B29 | 0.146 KA relative to UGCAUGU |
| B30 | 0.0699 KA relative to UGCAUGU |
| B31 | 0.0913 KA relative to UGCAUGU |
